Data published in paper PMC12040169 (PLOS Biology, 2025).
The list shows a part of the results.

Tested on: T1, C. trachomatis L2/434/Bu expressing GFP (CTL2-GFP)
T1 construct: L2/434/Bu GFP intracellular growth in HeLa cells
Parameters: species or system HeLa; C. trachomatis total inclusion area by high-content imaging, normalised to DMSO
Settings: total inclusion area; 28.5 h, 10 µM; inhibitor
Outline: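 Imaging read-out: GFP inclusions and Hoechst nuclei captured by high-content imaging after fixation. Inclusion area/number = chlamydial growth; nuclei count = host cell viability. MIC calculated per earlier method.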

| SMILES | % of control remaining |
| --- | --- |
| CC(N)C(=O)NC1CCN(c2nc3c(cc2F)c(=O)c(C(=O)O)cn3C23CC(C2)C3)C1 (stereo not shown) [CBK016632] | 0.3463 |
| O=C(OCCc1cccnc1)N1CCSCC1 [CBK200160] | 112.627 |
| O=C(Nc1ccc2ccccc2c1)c1ccccc1N(Cc1ccccc1)S(=O)(=O)c1ccccc1 [CBK263751] | 94.9006 |
| Cc1ccc(C(C)C)c(OCC(=O)n2nc(C)cc2C)c1 [CBK058196] | 101.62 |
| Cc1cc(C)n(CC(=O)Nc2ccccc2-n2ccnc2)n1 [CBK283079] | 74.9959 |
| COc1cccc(NC(=O)NCc2ccc(F)cc2)c1 [CBK115590] | 98.5945 |
| O=C(COc1ccc(Cl)cc1Cl)NC(Cc1ccccc1)C(=O)O (stereo not shown) [CBK261061] | 100.469 |
| C(=C\c1ccccc1)/CNCCCN1CCOCC1 [CBK278195C] | 54.72 |
| O=S(=O)(Nc1cccc(-c2cnco2)c1)c1cccc2cccnc12 [CBK067104] | 98.6119 |
| Cc1ccc(Cl)cc1NC(=O)OCCN(C)C [CBK016906] | 111.641 |
| CCCCNS(=O)(=O)c1ccccc1[N+](=O)[O-] [CBK261456] | 96.265 |
| COc1cncc(C(NC(=O)c2ccc3[nH]nnc3c2)[C@H]2C[C@@H](O)C2)c1 (stereo partly shown) [CBK307049] | 80.9228 |
| CC1(C)[N+]([O-])=CC(c2ccc(-c3ccccc3)cc2)=[N+]([O-])C1(C)C [CBK267825] | 88.8196 |
| Cc1csc2c(C3CCCN(C(=O)c4cnn(C)c4)C3)nc(C)n12 (stereo not shown) [CBK284595] | 81.2728 |
| O=C1N[C@]2(CCc3ccccc31)CN(Cc1ccccc1)C[C@H]2CO [CBK284795] | 77.943 |
| CCc1nc(N)nc(N2CCCC3(CN(C)C(=O)O3)C2)c1C (stereo not shown) [CBK306914] | 47.7589 |
| O=C(NCc1cccnc1)c1ccc2c(c1)C(=O)N(Cc1ccco1)C2=O [CBK269675] | 53.8882 |
| Nc1cc(S(=O)(=O)O)c2cccnc2c1O [CBK278176] | 72.4115 |
| COc1cc(/C=C2/C(=O)N(c3nnn[nH]3)N=C2C)ccc1OC(=O)c1cccs1 [CBK266641] | 89.707 |
| CN(C)S(=O)(=O)N1CC2(CCN(C(=O)[C@@H]3CN(C(=O)C(C)(C)NC(=O)OC(C)(C)C)C[C@H]3c3cc4ccccc4o3)CC2)c2ccccc21 [CBK014088] | 82.5617 |
| CC(C)Oc1ccc(-c2cc(C(=O)NCc3ccncc3)c3ccccc3n2)cc1 [CBK293957] | 115.916 |
| CCOC(=O)CN1CCN(c2cc(C#N)ccn2)CC1 [CBK306006] | 70.5042 |
| Cc1nc(N)sc1-c1nnc(SCC(=O)Nc2ccccc2C(F)(F)F)n1C [CBK267359] | 105.136 |
| COc1ccccc1N(CC(O)CN1C(=O)NC(C)(C)C1=O)S(=O)(=O)c1ccc(C)cc1 (stereo not shown) [CBK263581] | 102.268 |
| CCN(Cc1ccncc1)C(=O)NCC1CCCCC1 [CBK155132] | 109.863 |
| COc1ccc(OCCNC(=O)c2ccc(-c3cccc(N(C)C)c3)nc2N(C)C(C)=O)cc1 [CBK076587] | 75.3136 |
| COc1cc(CCN2CCCCC2)c(C(C)n2cncn2)cc1OC (stereo not shown) [CBK023837G] | 65.4125 |

| SMILES | % of control remaining |
| --- | --- |
| CC(=O)Oc1cccc(CN2CCCN(S(=O)(=O)c3ccc(-c4ccccc4)cc3)CC2)c1 [CBK063113] | 102.021 |
| O=C(c1cscn1)N1CCC2(CCCNC2)C1 (stereo not shown) [CBK153230C] | 100.736 |
| CC(=O)c1c(C(=O)O)[nH]c(C(=O)O)c1C [CBK263934] | 96.4521 |
| NCCCCCCNC(=O)c1c(O)c2ccccc2oc1=O [CBK261071] | 88.9338 |
| Cc1cc2c(SCc3cc(O)[nH]n3)ncnc2s1 [CBK269799] | 95.2381 |
| CCc1nnc(NS(=O)(=O)c2ccc(NC(=O)c3ccccc3[N+](=O)[O-])cc2)s1 [CBK045494] | 98.8137 |
| COc1ccc(OC(=O)COc2nc3c(C)cc(C)nc3[nH]2)cc1 [CBK269290] | 82.8903 |
| COc1ncc(-c2ccc(N3CCN(c4ccncc4)CC3)nc2)c(OC)n1 [CBK036848] | 80.7664 |
| CCNC(=O)N1CC2(CCN(C/C=C/c3ccccc3)CC2)c2ccccc21 [CBK144596T] | 91.2823 |
| O=C1CSC2(C(=O)Nc3ccccc32)N1c1ccc2ccccc2c1 (stereo not shown) [CBK093461] | 85.4809 |
| CCn1cc(CN(C)C(=S)Nc2cccc(C(C)=O)c2)c(C)n1 [CBK267040] | 121.529 |
| COc1ccc(C2(C(=O)NCc3ccncc3)CCOCC2)cc1 [CBK287991] | 100.345 |
| O=C(C1CCCC1)N1CCC(n2c(=O)oc3ccccc32)CC1 [CBK284349] | 59.0143 |
| CCn1ccnc1CN1CCCC(CCc2ccccc2F)C1 (stereo not shown) [CBK307173] | 63.3017 |
| CCC(C)NC(=O)C(Cc1ccc([N+](=O)[O-])cc1)N1C(=O)c2ccccc2C1=O (stereo not shown) [CBK261278] | 75.6375 |
| CN(C)CCC(O)(c1ccccc1)c1cc2c(cc1Cl)CCC2 (stereo not shown) [CBK010000C] | 21.5939 |
| O=C(Oc1ccccc1)N1CCC(n2c(=O)[nH]c3ccccc32)CC1 [CBK149865] | 100.838 |
| S=C(Nc1nc2c(s1)CCCC2)NC1CC1 [CBK288425] | 99.473 |
| COc1ccc(OCCN2CCc3ccccc3C2)cc1 [CBK126403] | 91.3932 |
| CCCCC(c1ccc(Cl)cc1)N(CCN(C)C)c1ccccn1 (stereo not shown) [CBK012315F] | 68.2276 |
| Cc1ccc(N(CC(=O)NCC2CCCO2)S(=O)(=O)c2ccc(Cl)cc2)cc1 (stereo not shown) [CBK269039] | 96.0001 |
| CC(=O)NS(=O)(=O)c1ccc(-c2ccc(/C=C(/C#N)c3nc4ccc(C)cc4[nH]3)o2)cc1 [CBK264771] | 91.1283 |
| CCn1cc(C(=O)NN)c(=O)c2cc(F)c(NN)cc21 [CBK262735] | 99.8302 |
| O=C(CCCN1C(=O)c2ccccc2C1=O)Nc1ccc(C(=O)O)cc1 [CBK287043] | 90.9383 |
| COc1ccc(NC(=O)CSc2nnc(C(O)c3ccccc3)n2C)cc1 (stereo not shown) [CBK266053] | 109.801 |
| Cc1nccn1C1CCCN(C(C)C(=O)NC2(C#N)CCCCC2)C1 (stereo not shown) [CBK304194] | 78.5482 |
| CC(=O)c1ccc(S(=O)(=O)NCc2ccc(C(F)(F)F)cc2)cc1 [CBK044314] | 98.3226 |

| SMILES | % of control remaining |
| --- | --- |
| NC(=O)CCC(=O)N1CCC2(C/C=C/CCOc3ccccc3C(=O)NCCCNC2=O)CC1 [CBK292059] | 90.1569 |
| CCNC(=S)N1CCN(C(=O)c2cccc(OC)c2)CC1 [CBK154778] | 116.336 |
| CC1=NN(c2ccccc2)C(=O)/C1=C\c1cn(CCC(=O)O)nc1-c1cc2ccccc2o1 [CBK265252] | 125.378 |
| CCOC(=O)CNS(=O)(=O)c1cc(Cl)sc1Cl [CBK034431] | 112.606 |
| Cc1ccccc1CNC(=O)CN(c1cccc(C(F)(F)F)c1)S(=O)(=O)c1ccccc1 [CBK264047] | 101.986 |
| Cc1ccc2cc(CN(Cc3ccc4c(c3)OCO4)Cc3nnnn3Cc3ccco3)c(=O)[nH]c2c1 [CBK108949] | 111.729 |
| O=C(Cc1cc(F)cc(F)c1F)Nc1cccc2[nH]ccc12 [CBK159650] | 93.0641 |
| Cc1nc2ccccc2c(=O)n1CCC(=O)N1CCc2sccc2C1c1ccco1 (stereo not shown) [CBK285706] | 93.549 |
| c1cncc(CCOc2nccnc2N2CCNCC2)c1 [CBK014992] | 66.0002 |
| CCOc1ccc(-c2ncncc2-c2ccccc2)c(O)c1 [CBK288111] | 94.3523 |
| Cc1n[nH]c(=O)c2c(C)noc12 [CBK001281] | 87.6732 |
| O=C(Nc1nnc(-c2ccccc2)o1)C1COc2ccccc2O1 (stereo not shown) [CBK287596] | 117.675 |
| CC(C)C(=O)Nc1ccc2ccc(-c3ccc(C(C)(C)C)cc3)nc2n1 [CBK073669] | 83.8694 |
| CNS(=O)(=O)c1ccc(C)c(NC(C)=O)c1C [CBK034426] | 78.5333 |
| CN1CC(C(=O)N2CCC(c3cc4ccccc4cn3)CC2)CC1=O (stereo not shown) [CBK284870] | 92.7115 |
| C=CCn1c(SCC(=O)Nc2sc3c(c2C#N)CCC3)nc2scc(-c3ccccc3)c2c1=O [CBK264477] | 104.831 |
| OC(COc1cccc2ccccc12)CN1CCN(C(c2ccccc2)c2ccccc2)CC1 (stereo not shown) [CBK007591] | 88.8081 |
| Cc1cc(C)c(S(=O)(=O)NCCN2CCN(S(=O)(=O)c3c(C)cc(C)cc3C)CC2)c(C)c1 [CBK265842] | 77.9157 |
| CC(C(=O)N1CCC(c2nn(C)c3ncccc23)CC1)c1ccccc1 (stereo not shown) [CBK282166] | 90.0248 |
| COc1ccc(CN2CC[C@H]3[C@@H](C2)[C@H](c2ccsc2)CN3C(=O)c2ccccc2)cc1 [CBK285614] | 66.5223 |
| COCCNc1nc(-c2cccs2)cn2ccnc12 [CBK066408] | 102.189 |
| Cc1cccc(C2NS(=O)(=O)NC2=N)c1 (stereo not shown) [CBK263868] | 105.492 |
| O=C(OCc1ccccc1)N1CCC(c2nc3ccc(Br)cc3[nH]2)CC1 [CBK153849] | 109.971 |
| Cc1cc2c(cc1C)NC(CC(=O)Nc1ccc(N(C)C)cc1)C(=O)N2 (stereo not shown) [CBK265595] | 97.2984 |
| O=C(Nc1cccc(F)c1C(=O)Nc1ccc(F)cc1F)c1cccs1 [CBK066849] | 97.1342 |
